From PubChem BioAssay AID1466 (National Center for Advancing Translational Sciences (NCATS), 2008)
The campaign covered roughly 200,000 compounds. About 10 (0.005%) were called active. This list was built around the results that the source calls inconclusive (neither active nor inactive); the mix of calls is not that of the screen. Calls follow the shape of the dose curve; as a rule, active = well fitted inhibition curve with a large enough effect; inconclusive = small, poorly fitted or top-dose-only effect, or effect the other way, or another doubt; inactive = no such curve, though single readings can be large or run the other way. No potency is given beside an inconclusive call; the fits are too rough.

What follows are molecules tested against Lysosomal alpha-glucosidase (Homo sapiens) (UniProt P10253) (assay: qHTS Assay for Inhibitors of Human alpha-Glucosidase as a Potential Chaperone Treatment of Pompe Disease). Conditions: purified human GAA, 4-MU-alpha-glucoside fluorescence; activity change, negative = inhibition: at 76.9 µM (top of the series) unless noted.
Method in brief: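 Enzyme (4 nM final) mixed with compound (up to 77 uM), then 4-MU-alpha-D-pyranoside (400 uM final) added; 20 min at room temperature, pH 5.0. Reaction stopped at pH 10, fluorescence read, AC50 derived by Hill fit.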
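For activity change, negative = inhibition in this document: plate controls were uninhibited enzyme wells for no effect and no-enzyme background for full effect.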
Potency is read from the fitted curve at half-maximal effect; tags tell the direction and shape of the fitted curve.

Row | SMILES | activity change, negative = inhibition | Potency
1 | Cc1nc(NS(=O)(=O)c2ccccc2)sc1NC(=O)Nc1ccccc1 | inconclusive: 19.5% [activator] | –
2 | [N-]=C=C1C(=S)NC(=O)[C@H]([n+]2ccccc2)[C@H]1c1ccc(Cl)cc1 | – | inactive
3 | CCCCn1nnnc1SCC(=O)Nc1ccc(N(C)C)cc1 | – | inconclusive [inhibitor, partial curve]
4 | C/C(=N/NC(=O)CN1CCN(S(=O)(=O)c2ccc(C)cc2)CC1)c1ccco1 | – | inconclusive [inhibitor, single point]
5 | CC(=O)Nc1cc2ccccc2oc1=O | – | inactive
6 | CNC(=O)/C(C#N)=C/c1c(N(Cc2ccccc2)Cc2ccccc2)nc2ccccn2c1=O | inconclusive: 10.1% [activator] | –
7 | NS(=O)(=O)c1ccc(N2N=C(c3ccccc3)CC2c2ccccc2)cc1 (configuration not stated) | – | inconclusive [activator, partial curve]
8 | Cn1c(=O)[nH]c(=O)c2c1nc(Sc1nc3ccccc3s1)n2Cc1ccccc1 | – | inconclusive [activator, single point]
9 | CCCCCCOC(=O)CCc1c(C)nc(N)[nH]c1=O | – | inconclusive [inhibitor, single point]
10 | O=C(Cc1cnc2ncnn2c1)N1CCc2c([nH]c3ccccc23)C1c1ccccc1F (configuration not stated) | inconclusive: 18.3% [activator] | –
11 | FC(F)Sc1ccc(-n2cc(-c3ccc(Cl)cc3)[n+]3c2CCC3)cc1 | – | inconclusive [inhibitor, single point]
12 | COc1cc2cc(CN(CCCO)S(=O)(=O)c3ccccc3)c(=O)[nH]c2cc1OC | – | inconclusive [activator, single point]
13 | CNC(=O)c1oc(-c2ccccc2)nc1C | – | inconclusive [inhibitor, full curve]
14 | Oc1nc(-c2ccc(Cl)cc2)n2ccncc12 | – | inconclusive [inhibitor, single point]
15 | Nc1ccccc1-n1cccc1 | – | inconclusive [activator, single point]
16 | N#CC(C#N)=C1C=CC=CN1/C(=C\c1ccco1)C(=O)c1ccc(Br)cc1 | – | inconclusive [inhibitor, single point]
17 | Cc1cccc(-n2c(N)c(C(=O)NCCN3CCOCC3)c3nc4ccccc4nc32)c1 | – | inconclusive [activator, partial curve]
18 | Cc1ccc(S(=O)(=O)Nc2c3ccccc3nc(=O)n2-c2ccccc2)cc1 | – | inconclusive [activator, partial curve]
19 | COc1ccccc1NC(=O)CN(Cc1ccco1)C(=O)c1ccc(-n2nc(C)cc2C)cc1 | – | inactive
20 | Cc1cc(NC(=O)c2ccccc2)ncc1NC(=O)c1cccs1 | inconclusive: 12.4% [activator] | –
21 | Cc1ccc(-n2cc(CNCCN3CCOC3=O)c(-c3cccc(C)c3)n2)cc1 | – | inconclusive [inhibitor, single point]

Row | SMILES | activity change, negative = inhibition | Potency
22 | Cc1ccc(S(=O)(=O)N2CCC(=O)N(C(COCc3cccc(C)c3)Cc3ccccc3)CC2)cc1 (configuration not stated) | – | inconclusive [inhibitor, partial curve]
23 | O=C(Cn1cnc2c(nnn2Cc2ccc(Cl)cc2)c1=O)OCc1ccccc1 | – | inactive
24 | O=C1CS/C(=N/N=C/c2ccccc2OS(=O)(=O)c2ccccc2)N1 | – | inconclusive [inhibitor, single point]
25 | O=C(CN1C(=O)COCC1=O)N1CCOCC1 | – | inconclusive [inhibitor, single point]
26 | Cc1cccc(C)c1N(CC(O)Cn1c2ccccc2c2ccccc21)S(C)(=O)=O (configuration not stated) | inconclusive: -15.1% [inhibitor] | –
27 | O=C(/C=C/c1ccccc1[N+](=O)[O-])N1CCN(c2ccc(F)cc2)CC1 | inconclusive: 12.8% [activator] | –
28 | Cc1cc2nc(SCC(=O)Nc3nonc3C)c3c(c2cc1C)CCCC3 | – | inconclusive [inhibitor, partial curve]
29 | Cc1ccc2nsnc2c1NC(=O)c1ccc([N+](=O)[O-])cc1 | – | inconclusive [inhibitor, full curve, poor fit]
30 | C/C=C/C(=O)Nc1nnc(C2CCCCC2)s1 | inconclusive: 23% [activator] | –
31 | O=C1CCCc2nc(N3CCN(C(c4ccccc4)c4ccccc4)CC3)ncc21 | – | inactive
32 | CCN1CCN(C(=O)CN(c2cc(OC)ccc2OC)S(C)(=O)=O)CC1 | – | inconclusive [inhibitor, single point]
33 | COc1cc(/C=N/NC(=O)c2ccc(C)nc2)cc([N+](=O)[O-])c1O | – | inconclusive [inhibitor, single point]
34 | NS(=O)(=O)c1ccc(CCNc2nc3c(-c4cccc(F)c4)nnn3c3ccccc23)cc1 | – | inconclusive [activator, partial curve]
35 | N#Cc1ccc(/C=C\c2nccc3c2[nH]c2ccccc23)cc1 | inconclusive: 4.24% [activator] | –
36 | CCOC(=O)C1CCCN(CC(=O)NC2=Nc3ccccc3N=C(C)C2c2ccccc2)C1 (configuration not stated) | – | inconclusive [inhibitor, single point]
37 | CN1CCc2c(c3ccccc3n2Cc2ccccc2)C1 | – | inconclusive [inhibitor, single point]
38 | COc1ccc(CCN2C(=O)NC(NC(=O)C(C)(C)C)(C(F)(F)F)C2=O)cc1OC (configuration not stated) | – | inconclusive [inhibitor, single point]
39 | Fc1ccc(C(c2ccc(F)cc2)N2CCN(C/C=C/c3ccccc3)CC2)cc1 | – | inconclusive [inhibitor, single point]
40 | N#Cc1cc2c(=O)n3ccccc3nc2n(CCN2CCOCC2)c1=O | – | inconclusive [activator, partial curve, poor fit]
41 | O=[N+]([O-])c1ccc(-c2ccc(S(=O)(=O)NCCN3CCCC3)cc2)cc1 | – | inconclusive [inhibitor, single point]
42 | Cc1ccccc1Nc1nnc(SCC(=O)NCc2ccco2)s1 | – | inconclusive [inhibitor, full curve, poor fit]
